Laboratory results published in the supplement of paper PMC3334620.
Over roughly 33,000 sequences, “E-score (-0.5 to 0.5)” has its median near -0.01; the highest 2% begin near 0.26. This is one part of the list.

Biological target: Ste12 (UniProt P13574)
Assay: PBM E-score (8-mer binding enrichment) (E-score (-0.5 to 0.5)); higher = stronger / more preferred TF binding; most listed sequences are background and not binding sites
Details: protein concentration: 200 nM; construct: GST-DNA-binding domain
How it was run: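 Masliner-normalised scans of fluorescent anti-GST signal were the basis for scoring. That signal came from GST-tagged yeast transcription factors applied at about 100-200 nM to double-stranded universal all-10-mer Agilent arrays on fresh or once-stripped slides. Each ungapped eight-base word, pooled with its reverse complement, received an E-score from the Universal PBM Analysis Suite.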

| Sequence | PBM E-score |
| --- | --- |
| CCAGTCAA | -0.0304 |
| AACGGATA | 0.189 |
| ACGGGCAC | -0.161 |
| TCTAAAGA | 0.0725 |
| CCTTAGCC | 0.0679 |
| AAGTCATC | -0.115 |
| AGAAGGCC | -0.0299 |
| AAGAACGG | -0.181 |
| AAAAGTCC | 0.0278 |
| AGTCCACT | -0.113 |
| AAGAAGGT | -0.053 |
| CTACCGCC | -0.167 |
| CTGCCAAA | 0.082 |
| CGATTCTA | -0.042 |
| AGATAGGG | -0.218 |
| CGATAAGC | -0.0182 |
| TGGAGGAA | -0.15 |
| GAATGCAA | 0.0344 |
| ACCGGTAC | -0.201 |
| AGACCAAG | -0.102 |
| CGATCTAC | -0.0526 |
| GTTGCTAA | 0.174 |
| CTGTGAAG | 0.00467 |
| CCCTGTGA | -0.124 |
| CCTGTTAC | 0.151 |

| Sequence | PBM E-score |
| --- | --- |
| CGAACAGC | -0.19 |
| AATCAAAC | 0.216 |
| CCCCCCGG | -0.276 |
| GGTTCATA | -0.0487 |
| ATTTCCCA | 0.079 |
| ATAACACG | 0.0471 |
| AGGCATCC | -0.26 |
| GGAAGTTA | 0.0953 |
| GGCGCGCC | 0.182 |
| ACTACAAT | 0.25 |
| AGAGATCC | 0.00365 |
| CTAGCCGC | -0.156 |
| CCACTTAC | 0.133 |
| AGATCACA | -0.134 |
| AAGGCTAT | -0.0241 |
| AGGCAGAA | -0.0201 |
| CATGTGGC | -0.112 |
| CCCGAAAG | 0.00951 |
| ATTGCAAG | 0.0803 |
| CGGAATTA | 0.0923 |
| CGTCCATA | -0.05 |
| GCGGTATA | 0.0655 |
| GGCCACCA | 0.0635 |
| ACACGAGT | 0.0473 |
| AGAGCAAG | -0.103 |

| Sequence | PBM E-score |
| --- | --- |
| ACGATCCC | 0.159 |
| CCAAGCGG | -0.244 |
| ACAATCGT | -0.0611 |
| GGTACTAA | 0.123 |
| GTGGCTAA | 0.0525 |
| AAAGGGGG | -0.237 |
| TTGACAAA | -0.0401 |
| ACCTGATA | 0.051 |
| CCCGTTCA | 0.0328 |
| CCAACAGG | 0.106 |
| CTATATAC | 0.162 |
| CCATTATC | -0.019 |
| CCAGTCCG | -0.198 |
| GGGTTACC | -0.188 |
| AACAGATC | 0.11 |
| GTTGGCTA | 0.107 |
| ACGCGCCC | -0.0509 |
| CGTGCAAC | 0.0201 |
| GTCTTAGA | -0.0535 |
| GCTGCTAA | -0.101 |
| AATACAGG | 0.0997 |
| AGGCTTAT | -0.135 |
| ATAACGGA | 0.145 |
| ATAGCCTA | -0.0275 |
| AGATTCCC | -0.0921 |

| Sequence | PBM E-score |
| --- | --- |
| ACGATGGG | -0.0771 |
| CTATAACA | -0.157 |
| CCCCTCCA | 0.246 |
| CGCTCTCC | -0.244 |
| ACATGAAT | 0.09 |
| CCTGGGGC | -0.246 |
| AACTGCTC | -0.22 |
| CATCTGCC | -0.194 |
| CTCCGCAC | -0.172 |
| GCCCTCAC | -0.144 |
| TAATCAGA | 0.0528 |
| CATTTCAC | 0.099 |
| CTGCCGTC | -0.112 |
| GAAATCCA | 0.174 |
| GGTTAATA | 0.0275 |
| CAGCTGGG | -0.0962 |
| CTTCGCTC | -0.224 |
| CTGTTGCC | -0.0857 |
| GACTTTTA | 0.0969 |
| ATAGACCG | -0.17 |
| CTAACGAA | 0.11 |
| GGGTGAAC | -0.0519 |
| CTGTTCGA | 0.0108 |
| AAGTGATT | 0.0453 |
| ATTCCTCC | -0.0519 |

| Sequence | PBM E-score |
| --- | --- |
| ATAGCCCG | -0.113 |
| ACGATTAG | -0.0979 |
| GTGTTTAA | 0.155 |
| GCAAAAGA | -0.0961 |
| AGGGACTG | -0.125 |
| ATACGCGG | 0.0476 |
| GATGGTAC | -0.11 |
| ACAACCCC | 0.0635 |
| ATCAGATC | 0.0245 |
| CAATTGTA | -0.131 |
| ATCCAGTC | -0.037 |
| AAGCGGTC | -0.0133 |
| ACGTTCAG | -0.00054 |
| GCGGTACA | -0.0812 |
| AGCACACT | -0.151 |
| AACGAGTA | 0.0916 |
| CGTGGATA | -0.138 |
| ATCAAACC | 0.217 |
| GCATAGCC | -0.244 |
| AGACTACC | -0.179 |
| AATAGGAA | 0.0659 |
| TGCCGAAA | 0.0752 |
| CCGCTATA | -0.0533 |
| AATCACCG | -0.0132 |
| AGAGGTTA | 0.0445 |

| Sequence | PBM E-score |
| --- | --- |
| AATTCGAT | 0.141 |
| GTACTCAA | 0.0222 |
| ACGTGGGA | -0.0587 |
| AGGCTATC | -0.011 |
| ACAACTCA | 0.253 |
| CCAGACGG | -0.143 |
| ATTGGAGA | 0.0798 |
| AATTGGAA | 0.132 |
| CGGTGCGA | -0.00226 |
| CGATGCCC | -0.232 |
| AACTCGAT | 0.0663 |
| AAGACCAC | -0.121 |
| CTCATTGA | -0.14 |
| AGGATGGC | -0.196 |
| ACACTCCG | -0.016 |
| CAGAGTGA | -0.0253 |
| CAGTGTGC | -0.187 |
| ATAAGATA | 0.0792 |
| AAACCGTT | 0.00687 |
| GTAGGCGA | -0.243 |
| AGTATAAG | 0.158 |
| CGACAGTC | -0.278 |
| CGAGAGTA | 0.17 |
| AGCAGCTG | -0.0339 |
| CCAGAGAG | -0.096 |

| Sequence | PBM E-score |
| --- | --- |
| CGCTGGCC | -0.208 |
| GTAGCCAA | 0.0142 |
| GTCTTTGA | 0.0928 |
| CCACGATC | -0.0417 |
| ACGTTTAT | 0.0324 |
| AGCAGACG | -0.0594 |
| CGCTGCCA | -0.031 |
| TAGGTACA | -0.233 |
| CAACATCA | 0.0676 |
| CCTGCGGA | -0.047 |
| AGGCCAGC | -0.157 |
| GATAACGC | 0.0885 |
| CAGATACA | 0.0012 |
| ACCCCCCC | -0.271 |
| ACCCCGGC | -0.0462 |
| CTCAAGTA | -0.113 |
| ACCAAAAT | 0.254 |
| CATGCATC | 0.0744 |
| CGATAACG | -0.0902 |
| CCCCTGCC | -0.0546 |
| AACAGGGT | 0.029 |
| ATGGATAG | -0.0389 |
